According to PubChem BioAssay (NCATS):
The inconclusive results got no clear call from the source; some entries with a clear call stand among them for comparison. For some assays here: A potency beside an inconclusive call is a rough fit, not a confirmed value. Active and inactive are the calls of the source. Unless noted, the call rests on the fitted dose curve; in most records, active means well fitted curve in the direction sought with a large enough effect; inconclusive means small, poorly fitted or top-dose-only effect, or another doubt; inactive means no such curve, though single readings can be large; an effect the other way counts as inactive or inconclusive.

Key:
[1] = target: DNA repair nuclease/redox regulator APEX1 (Homo sapiens) (UniProt P27695); experiment: qHTS Validation Assay for Inhibitors of the Human Apurinic/apyrimidinic Endonuclease 1 (APE1) (AID 1705; further: potency means the concentration at half of the fitted maximal effect)
UniProt P27695, sequence (P27695 whole entry, looked up): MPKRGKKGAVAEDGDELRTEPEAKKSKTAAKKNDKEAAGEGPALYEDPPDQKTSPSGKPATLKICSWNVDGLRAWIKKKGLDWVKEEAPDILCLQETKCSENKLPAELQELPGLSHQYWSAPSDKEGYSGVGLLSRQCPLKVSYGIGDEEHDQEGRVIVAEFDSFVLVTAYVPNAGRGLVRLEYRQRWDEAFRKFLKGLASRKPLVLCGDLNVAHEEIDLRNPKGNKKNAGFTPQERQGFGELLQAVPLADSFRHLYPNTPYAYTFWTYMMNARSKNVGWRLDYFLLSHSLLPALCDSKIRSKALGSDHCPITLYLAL
How it was run: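 Endonuclease activity of human APE1 is followed as dequenching when the enzyme incises a tetrahydrofuran abasic site in a short duplex labelled 5'-TAMRA/3'-BHQ-2 (50 nM final), after 15 min enzyme–compound preincubation at room temperature.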

[2] = target: Endonuclease 4 (Escherichia coli (strain K12)) (UniProt P0A6C1); experiment: Counterscreen for APE1 Inhibitors: qHTS Validation Assay for Inhibitors of Endonuclease IV (AID 1708); further: potency means the concentration at half of the fitted maximal effect
How it was run: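 Incision of a double-stranded 50 nM TAMRA/BHQ-2 abasic substrate was followed kinetically (525/598 nm, reads every 60 s) after 15 min enzyme–compound preincubation with 2 nM EndoIV in pH 7.5 Tris buffer with MgCl2, DTT and Tween-20; concentration-response format.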

[3] = qHTS for differential inhibitors of proliferation of Plasmodium falciparum line 7G8 (AID 1815);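 further: parasite growth measured after three days of incubation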; further: potency means the concentration at half of the fitted maximal effect
[4] = qHTS for differential inhibitors of proliferation of Plasmodium falciparum line D10 (AID 1877);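 further: potency means the concentration at half of the fitted maximal effect; parasites grown with compound for 72 h before DNA staining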
[5] = qHTS for differential inhibitors of proliferation of Plasmodium falciparum line HB3 (AID 1886); details: Potency: Plasmodium falciparum HB3 proliferation inhibition;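 further: potency means the concentration at half of the fitted maximal effect; parasites grown with compound for 72 h before SYBR Green readout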
[6] = target: RecQ-like DNA helicase BLM (Homo sapiens) (UniProt P54132); experiment: qHTS Validation Assay for Inhibitors of Bloom's syndrome helicase (BLM) (AID 2364); further: potency means the concentration at half of the fitted maximal effect
UniProt P54132, sequence (P54132 whole entry, looked up): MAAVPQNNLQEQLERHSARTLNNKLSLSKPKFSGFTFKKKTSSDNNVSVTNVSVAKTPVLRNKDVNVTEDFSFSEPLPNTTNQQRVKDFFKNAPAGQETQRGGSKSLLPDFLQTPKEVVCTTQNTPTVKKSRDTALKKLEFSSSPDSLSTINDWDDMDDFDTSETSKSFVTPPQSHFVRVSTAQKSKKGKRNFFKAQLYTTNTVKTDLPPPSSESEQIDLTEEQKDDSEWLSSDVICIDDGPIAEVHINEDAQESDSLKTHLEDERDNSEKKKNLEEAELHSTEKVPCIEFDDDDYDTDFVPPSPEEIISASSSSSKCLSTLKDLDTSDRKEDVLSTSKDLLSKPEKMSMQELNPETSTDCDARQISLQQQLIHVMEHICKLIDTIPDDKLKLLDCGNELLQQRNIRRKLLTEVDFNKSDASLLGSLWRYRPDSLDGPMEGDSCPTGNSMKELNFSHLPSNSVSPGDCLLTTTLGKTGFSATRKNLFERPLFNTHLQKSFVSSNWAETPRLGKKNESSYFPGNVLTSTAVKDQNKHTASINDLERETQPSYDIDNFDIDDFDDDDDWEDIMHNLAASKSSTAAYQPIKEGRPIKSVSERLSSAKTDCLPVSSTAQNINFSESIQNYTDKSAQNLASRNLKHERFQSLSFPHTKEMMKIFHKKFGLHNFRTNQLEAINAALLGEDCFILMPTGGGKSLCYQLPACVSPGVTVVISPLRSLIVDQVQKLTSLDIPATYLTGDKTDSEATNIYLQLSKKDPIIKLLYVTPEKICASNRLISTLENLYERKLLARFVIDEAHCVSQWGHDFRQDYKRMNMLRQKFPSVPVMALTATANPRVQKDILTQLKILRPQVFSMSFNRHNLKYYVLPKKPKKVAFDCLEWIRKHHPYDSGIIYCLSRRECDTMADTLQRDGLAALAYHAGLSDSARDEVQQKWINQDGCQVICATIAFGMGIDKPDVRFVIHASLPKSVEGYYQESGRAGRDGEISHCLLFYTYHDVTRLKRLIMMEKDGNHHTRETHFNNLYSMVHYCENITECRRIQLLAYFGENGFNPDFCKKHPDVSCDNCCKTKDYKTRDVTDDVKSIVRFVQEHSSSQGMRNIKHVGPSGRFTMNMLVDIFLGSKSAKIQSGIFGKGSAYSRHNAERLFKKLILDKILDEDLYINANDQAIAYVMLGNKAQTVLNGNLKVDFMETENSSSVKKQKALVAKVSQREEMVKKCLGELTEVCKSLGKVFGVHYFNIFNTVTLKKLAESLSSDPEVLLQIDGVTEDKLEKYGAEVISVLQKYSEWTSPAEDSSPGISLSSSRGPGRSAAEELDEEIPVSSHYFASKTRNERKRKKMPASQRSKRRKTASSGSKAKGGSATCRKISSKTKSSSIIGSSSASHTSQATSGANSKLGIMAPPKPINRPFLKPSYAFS
How it was run: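 Forked 20-bp duplex substrate (200 nM, TAMRA/BHQ-2) plus 2 mM ATP added after 15 min compound preincubation with 50 nM enzyme, pH 8.0, poly(dI-dC) 2.5 ug/ml. Strand separation followed by fluorescence (525/598 nm) over 2 h, normalized to enzyme-free and DMSO controls.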

[7] = Validation screen for small molecules that induce DNA re-replication in MCF 10A normal breast cells (AID 463097); further: potency means the concentration at half of the fitted maximal effect; nearly all actives have a fitted effect of over 60% in size
How it was run: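 DNA re-replication was detected as a rise in nuclei with elevated Hoechst fluorescence after a 48 hr compound exposure of MCF 10A cells at 37 C.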

[8] = Quantitative high throughput screen for delayed death inhibitors of the malarial parasite plastid, 96 hour incubation (AID 488745); further: potency means the concentration at half of the fitted maximal effect; nearly all actives have a fitted effect of over 70% in size
How it was run: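 Decreased firefly luciferase luminescence indicates inhibited growth of reporter-integrated P. falciparum after two generations (96 h, 37 C, 5% CO2). Infected erythrocytes at 0.1% parasitemia, 2% hematocrit, in Albumax-supplemented RPMI 1640.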

[9] = target: M-phase phosphoprotein 8 (Homo sapiens) (UniProt Q99549); experiment: qHTS Validation Assay for Inhibitors for MPP8 Chromodomain Interactions with Methylated Histone Tails (AID 488949); further: nearly all actives have a fitted effect of over 55% in size; further: potency means the concentration at half of the fitted maximal effect
UniProt Q99549, sequence (Q99549 whole entry, looked up): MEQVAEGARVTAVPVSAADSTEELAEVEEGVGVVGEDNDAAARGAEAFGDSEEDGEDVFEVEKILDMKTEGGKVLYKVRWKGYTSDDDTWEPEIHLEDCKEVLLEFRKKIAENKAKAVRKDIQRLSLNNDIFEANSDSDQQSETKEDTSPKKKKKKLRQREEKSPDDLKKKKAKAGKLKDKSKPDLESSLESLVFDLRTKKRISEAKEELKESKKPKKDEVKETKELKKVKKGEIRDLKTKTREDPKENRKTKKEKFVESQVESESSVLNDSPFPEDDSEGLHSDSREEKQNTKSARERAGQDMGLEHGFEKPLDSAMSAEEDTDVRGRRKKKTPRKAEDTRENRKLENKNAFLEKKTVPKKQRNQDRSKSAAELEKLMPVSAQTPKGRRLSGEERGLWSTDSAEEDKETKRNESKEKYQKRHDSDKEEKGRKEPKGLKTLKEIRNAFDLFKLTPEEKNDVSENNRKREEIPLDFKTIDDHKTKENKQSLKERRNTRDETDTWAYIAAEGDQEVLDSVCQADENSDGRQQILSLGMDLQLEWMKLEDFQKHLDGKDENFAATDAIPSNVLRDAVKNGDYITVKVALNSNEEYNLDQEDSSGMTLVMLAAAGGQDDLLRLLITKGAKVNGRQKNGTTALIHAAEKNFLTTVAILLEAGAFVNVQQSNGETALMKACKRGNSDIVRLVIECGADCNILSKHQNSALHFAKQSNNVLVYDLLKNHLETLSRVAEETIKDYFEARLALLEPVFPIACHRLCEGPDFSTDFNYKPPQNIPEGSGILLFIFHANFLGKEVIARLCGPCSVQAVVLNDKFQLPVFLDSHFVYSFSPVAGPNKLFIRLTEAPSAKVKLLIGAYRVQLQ
How it was run: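 Disruption of the preformed MPP8–trimethyl-H3K9 peptide complex (both 50 nM, 30 min, RT) is measured after 30 min compound exposure, using AlphaScreen proximity beads; aurintricarboxylic acid titration serves as plate control.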

[10] = Validation screen for small molecules that induce DNA re-replication in SW480 colon adenocarcinoma cells (AID 504364); further: potency means the concentration at half of the fitted maximal effect
How it was run: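 Image-based DNA content read-out: Hoechst stain 40 min, total nuclear fluorescence intensity (ex 405 nm, em 500-530 nm) after 48 h compound exposure of 250 SW480 cells/well at 37 C, 5% CO2, versus DMSO vehicle.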

[11] = NCATS anti-infectives library activity on the primary C. elegans qHTS viability assay (AID 1745855; calls by dose curve; further: potency means the concentration at half of the fitted maximal effect)
How it was run: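 GFP read-out by 488 nm laser cytometry at day 0, 3 and 7, gated on object perimeter, area and peak intensity, scored viability of PE254-GFP-FLuc worms exposed to compound in S medium with bacterial capsules at 21 °C.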

[12] = target: ATPase family AAA domain-containing protein 5 (Homo sapiens) (UniProt Q96QE3); experiment: qHTS screen for small molecules that inhibit ELG1-dependent DNA repair in human embryonic kidney (HEK293T) cells expressing luciferase-tagged ELG1: Hit Confirmation using MMS Stimulated ELG1 (AID 624249); further: potency means the concentration at half of the fitted maximal effect; nearly all actives have a fitted effect of over 60% in size
How it was run: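 Cells carrying luciferase-tagged ELG1 receive compound and DNA-damaging MMS (final concentration 10 µM) roughly five hours after seeding. Sixteen hours on, Amplight detects luciferase, and activity loss marks blocked ELG1 function.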

[13] = target: Rap guanine nucleotide exchange factor 3 (Homo sapiens) (UniProt O95398); experiment: Counterscreen qHTS for agonist of cAMP-regulated guanine nucleotide exchange factor 3 (EPAC1) (AID 1645889); details: EPAC1 Rap1B-BODIPY-GDP exchange, fluorescence; activation: at 154 µM (top of the series) unless noted; further: potency means the concentration at half of the fitted maximal effect; nearly all actives have a fitted effect of over 40% in size
UniProt O95398, sequence (O95398 whole entry, looked up): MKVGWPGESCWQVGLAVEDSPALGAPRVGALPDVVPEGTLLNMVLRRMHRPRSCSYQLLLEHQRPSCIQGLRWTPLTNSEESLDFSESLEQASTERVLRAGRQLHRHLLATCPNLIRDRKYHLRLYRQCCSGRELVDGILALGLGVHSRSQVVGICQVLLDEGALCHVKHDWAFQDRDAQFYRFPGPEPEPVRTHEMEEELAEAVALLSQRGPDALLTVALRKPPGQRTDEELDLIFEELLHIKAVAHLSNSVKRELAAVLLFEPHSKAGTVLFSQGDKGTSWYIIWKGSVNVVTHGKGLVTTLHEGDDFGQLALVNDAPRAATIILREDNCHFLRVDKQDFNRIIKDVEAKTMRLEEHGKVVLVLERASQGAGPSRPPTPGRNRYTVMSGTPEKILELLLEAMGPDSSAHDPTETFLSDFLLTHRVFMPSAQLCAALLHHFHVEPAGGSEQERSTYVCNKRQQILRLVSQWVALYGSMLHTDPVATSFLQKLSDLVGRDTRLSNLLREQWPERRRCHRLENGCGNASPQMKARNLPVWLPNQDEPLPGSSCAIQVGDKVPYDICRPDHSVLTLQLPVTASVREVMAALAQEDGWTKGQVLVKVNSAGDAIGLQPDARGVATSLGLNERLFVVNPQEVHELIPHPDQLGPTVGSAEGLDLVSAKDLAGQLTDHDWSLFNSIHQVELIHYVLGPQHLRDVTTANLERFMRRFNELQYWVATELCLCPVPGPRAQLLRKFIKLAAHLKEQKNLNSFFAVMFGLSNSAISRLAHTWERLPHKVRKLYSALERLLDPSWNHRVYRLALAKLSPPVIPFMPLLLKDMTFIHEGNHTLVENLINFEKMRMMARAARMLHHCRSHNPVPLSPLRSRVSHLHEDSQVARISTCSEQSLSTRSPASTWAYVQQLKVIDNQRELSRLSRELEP
How it was run: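 Rap1B-BODIPY-GDP 250 nM + GDP 50 uM; cpds 7-pt, final 9.74 nM–152 uM (activator mode) or from 7.32 nM upwards (inhibitor mode); RT; FI 480/540 nm at 5 and 30 min, then ± cAMP, reread.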

[14] = qHTS for differential inhibitors of proliferation of Plasmodium falciparum line GB4 (AID 1816); details: Potency: Plasmodium falciparum GB4 proliferation inhibition;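 further: parasite growth measured after 72 h incubation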
[15] = qHTS for differential inhibitors of proliferation of Plasmodium falciparum line W2 (AID 1883); details: Potency: Plasmodium falciparum W2 proliferation inhibition;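 further: potency means the concentration at half of the fitted maximal effect; parasites grown with compound for 72 h before lysis and staining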
[16] = target: 3',5'-cyclic-AMP phosphodiesterase 4B (Homo sapiens) (UniProt Q07343); experiment: qHTS Assay for Inhibitors of PDE-IV (AID 607; active means well fitted activation curve with a large enough effect in the main read-out, with a control signal flat, not every such curve was filed as active; inconclusive means small, poorly fitted or top-dose-only effect, or effect the other way, or a change in a side signal); details: HEK293 ACTOne CNG channel cells, membrane potential fluorescence; series mostly up to 22.9 µM
UniProt Q07343, sequence (Q07343 whole entry, looked up): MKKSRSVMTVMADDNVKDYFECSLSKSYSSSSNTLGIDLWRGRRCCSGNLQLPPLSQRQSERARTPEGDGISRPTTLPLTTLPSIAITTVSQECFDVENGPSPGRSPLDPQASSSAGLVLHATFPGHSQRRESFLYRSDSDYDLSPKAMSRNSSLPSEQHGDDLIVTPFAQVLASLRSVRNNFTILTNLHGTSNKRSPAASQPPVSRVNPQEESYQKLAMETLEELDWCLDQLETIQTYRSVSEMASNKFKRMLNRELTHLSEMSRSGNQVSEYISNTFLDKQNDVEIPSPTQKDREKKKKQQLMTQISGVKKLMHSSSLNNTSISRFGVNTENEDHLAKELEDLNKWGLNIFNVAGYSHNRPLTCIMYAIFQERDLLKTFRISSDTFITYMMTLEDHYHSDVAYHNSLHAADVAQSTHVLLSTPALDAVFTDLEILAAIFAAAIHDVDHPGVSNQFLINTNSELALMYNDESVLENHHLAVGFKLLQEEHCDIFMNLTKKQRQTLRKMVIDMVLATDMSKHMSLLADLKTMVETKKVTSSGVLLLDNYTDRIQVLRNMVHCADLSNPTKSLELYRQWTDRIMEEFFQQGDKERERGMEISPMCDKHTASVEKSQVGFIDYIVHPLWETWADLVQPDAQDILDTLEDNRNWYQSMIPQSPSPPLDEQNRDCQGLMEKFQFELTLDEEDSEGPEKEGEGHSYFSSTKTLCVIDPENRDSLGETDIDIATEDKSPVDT
How it was run: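 The readout is membrane depolarisation from a cAMP-sensing CNG channel, detected with a potential dye at ex 535/em 590. Cells were HEK293-derived (endogenous PDE-IV) at 1000 cells/well, titrated up to 22.9 uM final.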

[17] = qHTS Assay for Identification of Small Molecule Agonists for Thrombopoietin (TPO) Signaling Pathway (AID 917); details: TPO signaling pathway reporter cells, agonist qHTS, stimulated with TPO at its EC50; series mostly up to 38.5 µM; further: potency means the concentration at half of the fitted maximal effect
How it was run: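 Quantitative HTS for pathway activators: compounds were pin-transferred onto IL-3-starved Ba/F3 cells expressing human TPO receptor, TPO was added at its EC50 (26 pM final), and after 24 hrs at 37 C reporter luciferase was measured.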

[18] = target: Pyruvate kinase PKM (Homo sapiens) (UniProt P14618); experiment: qHTS Assay for Inhibitors of Human Muscle Pyruvate Kinase (AID 958)
UniProt P14618, sequence (P14618 whole entry, looked up): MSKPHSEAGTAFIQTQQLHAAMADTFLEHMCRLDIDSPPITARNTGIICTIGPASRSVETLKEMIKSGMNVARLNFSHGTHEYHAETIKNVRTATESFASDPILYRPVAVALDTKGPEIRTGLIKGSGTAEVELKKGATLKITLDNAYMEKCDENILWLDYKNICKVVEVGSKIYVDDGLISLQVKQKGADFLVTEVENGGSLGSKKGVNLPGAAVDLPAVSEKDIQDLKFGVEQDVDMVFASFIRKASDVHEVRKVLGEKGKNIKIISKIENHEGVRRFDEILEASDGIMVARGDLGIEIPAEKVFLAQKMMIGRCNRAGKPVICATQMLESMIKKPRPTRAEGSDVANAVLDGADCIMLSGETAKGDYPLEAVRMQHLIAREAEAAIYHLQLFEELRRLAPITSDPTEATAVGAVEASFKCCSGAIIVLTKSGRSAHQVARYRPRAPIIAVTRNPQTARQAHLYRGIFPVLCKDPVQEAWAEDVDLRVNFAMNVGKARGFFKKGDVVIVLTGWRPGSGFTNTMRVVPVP
How it was run: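 A coupled luminescent readout tracked ATP made from ADP by purified PKM2. Final conditions included 0.1 nM enzyme, PEP and ADP at 0.5 and 0.1 mM, pH 7.2 imidazole buffer with BSA, and a one-hour room-temperature reaction.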

[19] = qHTS for differential inhibitors of proliferation of Plasmodium falciparum line 3D7 (AID 1876); further: potency means the concentration at half of the fitted maximal effect
[20] = qHTS Assay for Modulators of Human Peripheral Myelin Protein 22 (PMP22) Expression/Activity (AID 1967; active means well fitted curve in the direction sought with a large enough effect in the signal ratio; inconclusive means small, poorly fitted or top-dose-only effect, or effect the other way, or a change in a side signal; inactive means no such curve, though single readings can be large or run the other way; the % refers to the signal ratio; further: potency means the concentration at half of the fitted maximal effect); details: Cell-based PMP22 reporter, dual-color luciferase ratio, mouse Pmp22 promoter in mouse Schwann cells; series mostly up to 115 µM
How it was run: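 Quantitative HTS in a mouse Schwann cell line expressing dual click beetle luciferases: Pmp22 promoter (green) and control EF-alpha promoter (red). After 24h treatment, corrected green/red signal ratio gave %Activity relative to untreated cells.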
Tags describe the fitted curve by direction and shape.

CC[C@@H](C)[C@H]1O[C@]2(CC[C@@H]1C)C[C@@H]1C[C@@H](C/C=C(\C)[C@@H](O[C@H]3C[C@H](OC)[C@@H](O[C@H]4C[C@H](OC)[C@@H](O)[C@H](C)O4)[C@H](C)O3)[C@@H](C)/C=C/C=C3\CO[C@@H]4[C@H](O)C(C)=C[C@@H](C(=O)O1)[C@]34O)O2
Potency [1]: inconclusive: 15.8 µM [inhibitor, partial curve] | Potency [2]: inconclusive: 10 µM [inhibitor, partial curve] | Potency [3]: active: 2 µM | Potency [4]: active: 2.51 µM | Potency [5]: active: 1.12 µM | Potency [6]: inconclusive: 10 µM [inhibitor, full curve] | Potency [7]: inconclusive: 3.16 µM [activator, full curve] | Potency [8]: active: 0.117 µM | Potency [9]: inconclusive: 22.4 µM [inhibitor, full curve] | Potency [10]: inconclusive: 2.31 µM [activator, partial curve, poor fit] | Potency [11]: active: 0.0058 µM

COc1ccc(-c2cc(C(=O)N(C)CC(=O)Nc3ccccc3Cl)c3ccccc3n2)cc1OC
Potency [12]: active: 12.5 µM | Potency [13]: inconclusive: 0.0071 µM [activator, full curve, poor fit]

OC[C@H]1O[C@@H](n2cnc3c(NC4CCCC4)ncnc32)[C@H](O)[C@H]1O
Potency [2]: inactive | Potency [3]: inconclusive: 3.55 µM [inhibitor, partial curve, poor fit] | Potency [14]: inactive | Potency [15]: inconclusive: 7.94 µM [inhibitor, partial curve] | Potency [6]: inactive

Cn1cnc2c(NC3CCCC3)ncnc21
Potency [16]: inactive | Potency [17]: inconclusive: 10 µM [activator, single point] | Potency [18]: inconclusive: 0.0063 µM [inhibitor, full curve] | Potency [1]: inactive | Potency [3]: inactive | Potency [19]: inconclusive: 3.98 µM [inhibitor, partial curve] | Potency [15]: inconclusive: 11.2 µM [inhibitor, partial curve] | Potency [5]: inconclusive: 10 µM [inhibitor, partial curve] | Potency [20]: inconclusive: 75.7 µM [cytotoxic, partial curve] | Potency [6]: inactive | Potency [9]: inactive
